# Laboratory results published in PubChem BioAssay AID1508623 (National Center for Advancing Translational Sciences (NCATS), 2021).
# The whole screen tested about 48,000 compounds, of which about 450 (0.94%) were called active. The inconclusive results got no clear call from the source; some entries with a clear call stand among them for comparison. Calls follow the shape of the dose curve; as a rule, active = well fitted inhibition curve with a large enough effect; inconclusive = small, poorly fitted or top-dose-only effect; inactive = no such curve, though single readings can be large or run the other way. Where the call is inconclusive, the potency comes from a doubtful curve fit.
# Assay: Primary qHTS for Identification of Small Molecule Inhibitors of Huntingtin Promoter Activity; also: nearly all actives have a fitted effect of over 50% in size
# Details: HEK293 HTT promoter firefly luciferase reporter (activity 0% = vehicle and -100% = no light), 24 h; series mostly up to 57.5 µM
# Outline: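 HEK293 Fluc reporter, 2,500 cells/well, 24 h pre-culture; cpds up to 57.5 uM final, 24 h 37 degrees C; Dual-Glo, 10 min RT; normalized vehicle = 0%, zero RLU = -100%.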
# Potency is read from the fitted curve at half-maximal effect; tags tell the direction and shape of the fitted curve.
row,Compound,Potency
1,O=C(CSc1nccn1-c1ccc(Cl)cc1)Nc1cccc2ccccc12,"inconclusive: 39.8 µM [inhibitor, single point]"
2,COCCOC(=O)c1c(C)oc2c1cc(NS(=O)(=O)c1ccc(Cl)c(C)c1)c1ccccc12,"inconclusive: 35.5 µM [inhibitor, single point]"
3,CCOC(=O)Cc1ccc(NC(=O)n2ncc3cc(Cl)ccc32)cc1,active: 0.251 µM
4,CCc1ccc(NC(=O)C2CCCN(c3nn4cc(-c5ccc(OC)cc5)nc4s3)C2)cc1 (configuration not stated),"inconclusive: 14.1 µM [inhibitor, partial curve]"
5,O=C(NCC(c1ccc2c(c1)OCO2)N1CCN(c2ccc(F)cc2)CC1)c1cccc([N+](=O)[O-])c1 (configuration not stated),"inconclusive: 15.8 µM [inhibitor, partial curve, poor fit]"
6,O=C(NCCc1ccc(Cl)cc1)c1ccc(Cn2c(=O)[nH]c3ccccc3c2=O)cc1,inactive
7,COC(=O)c1c(NC(=O)COc2c(C)cccc2C)sc2c1CCCC2,"inconclusive: 39.8 µM [inhibitor, single point]"
8,CC1CCN(S(=O)(=O)c2ccc(C(=O)Nc3nc4ccc(F)cc4s3)cc2)CC1,inactive
9,COc1ccc(-c2nc(SCC(=O)Nc3ccc4c(c3)OCO4)c(-c3ccccc3)[nH]2)cc1,"inconclusive: 44.7 µM [inhibitor, partial curve, poor fit]"
10,Cc1ccc(CNc2oc(-c3ccc(COc4ccc(Cl)cc4)o3)nc2C#N)cc1,"inconclusive: 31.6 µM [inhibitor, partial curve, poor fit]"
11,CCOc1ccc(-c2cc3nc(C4CCN(C(=O)OC(C)(C)C)CC4)c(C(=O)Nc4ccc(C)c(F)c4)cn3n2)cc1,"inconclusive: 39.8 µM [inhibitor, single point]"
12,COc1ccc(-c2noc(N3CCC(C(=O)Nc4ccc(F)cc4Cl)CC3)n2)cc1,active: 1.78 µM
13,O=C(NCCc1ccc(F)cc1)C(=O)NCC(c1cccs1)S(=O)(=O)c1ccc(F)cc1 (configuration not stated),"inconclusive: 22.4 µM [inhibitor, partial curve, poor fit]"
14,Cc1ccc(-c2cn3nc(N4CCCC(C(=O)Nc5ccc(F)cc5)C4)sc3n2)cc1 (configuration not stated),"inconclusive: 3.98 µM [inhibitor, partial curve, poor fit]"
15,OCCN1CCN(CCCN2c3ccccc3Sc3ccc(C(F)(F)F)cc32)CC1,inactive
16,COc1ccc(OC)c(NCc2cccn2-c2nnc(N3CCCCC3)s2)c1,"inconclusive: 12.6 µM [inhibitor, partial curve]"
17,COc1ccc(C)cc1NC(=O)c1ccc2c(=O)n3c(nc2c1)CCCCC3,inactive
